In patent publication US20240252628A1 (ACCELERON PHARMA, published 2024):

T1: activin A (UniProt P08476 311-426)
T1 sequence (looked up): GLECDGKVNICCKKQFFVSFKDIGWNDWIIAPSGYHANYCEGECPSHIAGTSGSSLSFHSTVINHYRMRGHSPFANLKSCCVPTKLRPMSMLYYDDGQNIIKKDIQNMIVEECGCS

T2: BMP10 (UniProt O95393 317-424)
T2 sequence (looked up): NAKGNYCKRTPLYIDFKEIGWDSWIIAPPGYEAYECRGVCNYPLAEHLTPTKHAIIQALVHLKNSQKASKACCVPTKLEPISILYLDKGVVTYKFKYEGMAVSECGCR

T3: activin B (UniProt P09529 293-407)
T3 sequence (looked up): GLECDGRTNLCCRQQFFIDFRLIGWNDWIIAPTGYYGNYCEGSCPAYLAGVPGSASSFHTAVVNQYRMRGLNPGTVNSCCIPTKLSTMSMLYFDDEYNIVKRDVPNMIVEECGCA

T4: GDF11 (UniProt O95390 299-407)
T4 sequence (looked up): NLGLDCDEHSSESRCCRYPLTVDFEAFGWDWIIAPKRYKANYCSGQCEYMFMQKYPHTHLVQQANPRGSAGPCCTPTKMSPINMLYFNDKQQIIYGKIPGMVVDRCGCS

T5: GDF8 (UniProt O14793 267-375)
T5 sequence (looked up): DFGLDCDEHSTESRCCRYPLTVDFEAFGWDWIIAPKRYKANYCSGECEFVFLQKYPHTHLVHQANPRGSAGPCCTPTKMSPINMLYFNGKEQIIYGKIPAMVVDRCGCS

T6: BMP9 (UniProt Q9UK05 320-429)
T6 sequence (looked up): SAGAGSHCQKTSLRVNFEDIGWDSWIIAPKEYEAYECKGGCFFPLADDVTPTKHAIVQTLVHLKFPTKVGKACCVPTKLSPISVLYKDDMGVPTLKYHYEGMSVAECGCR

B1: ActRIIB(F82I-N83R)-G1Fc (Fc fusion)
chain: GRGEAETRECIYYNANWELERTNQSGLERCEGEQDKRLHCYASWRNSSGTIELVKKGCWLDDIRCYDRQECVATEENPQVYFCCCEGNFCNERFTHLPEAGGPEVTYEPPPTAPTG[human IgG1 Fc and a few adjoining residues not shown]
B2: ActRIIB(F82K-N83R)-G1Fc (Fc fusion)
chain: GRGEAETRECIYYNANWELERTNQSGLERCEGEQDKRLHCYASWRNSSGTIELVKKGCWLDDKRCYDRQECVATEENPQVYFCCCEGNFCNERFTHLPEAGGPEVTYEPPPTAPTG[human IgG1 Fc and a few adjoining residues not shown]
B3: ActRIIB(F82T)-G1Fc (Fc fusion)
chain: GRGEAETRECIYYNANWELERTNQSGLERCEGEQDKRLHCYASWRNSSGTIELVKKGCWLDDTNCYDRQECVATEENPQVYFCCCEGNFCNERFTHLPEAGGPEVTYEPPPTAPTG[human IgG1 Fc and a few adjoining residues not shown]
B4: ActRIIB(F82T-N83R)-G1Fc (Fc fusion)
chain: GRGEAETRECIYYNANWELERTNQSGLERCEGEQDKRLHCYASWRNSSGTIELVKKGCWLDDTRCYDRQECVATEENPQVYFCCCEGNFCNERFTHLPEAGGPEVTYEPPPTAPTG[human IgG1 Fc and a few adjoining residues not shown]
B5: ActRIIB(L79H)-G1Fc (Fc fusion)
chain: GRGEAETRECIYYNANWELERTNQSGLERCEGEQDKRLHCYASWRNSSGTIELVKKGCWHDDFNCYDRQECVATEENPQVYFCCCEGNFCNERFTHLPEAGGPEVTYEPPPTAPTG[human IgG1 Fc and a few adjoining residues not shown]
B6: ActRIIB(L79H-F82I)-G1Fc (Fc fusion)
chain: GRGEAETRECIYYNANWELERTNQSGLERCEGEQDKRLHCYASWRNSSGTIELVKKGCWHDDINCYDRQECVATEENPQVYFCCCEGNFCNERFTHLPEAGGPEVTYEPPPTAPTG[human IgG1 Fc and a few adjoining residues not shown]
B7: ActRIIB(L79H-F82K)-G1Fc (Fc fusion)
chain: GRGEAETRECIYYNANWELERTNQSGLERCEGEQDKRLHCYASWRNSSGTIELVKKGCWHDDKNCYDRQECVATEENPQVYFCCCEGNFCNERFTHLPEAGGPEVTYEPPPTAPTG[human IgG1 Fc and a few adjoining residues not shown]
B8: ActRIIB(F82I)-G1Fc (Fc fusion)
chain: GRGEAETRECIYYNANWELERTNQSGLERCEGEQDKRLHCYASWRNSSGTIELVKKGCWLDDINCYDRQECVATEENPQVYFCCCEGNFCNERFTHLPEAGGPEVTYEPPPTAPTG[human IgG1 Fc and a few adjoining residues not shown]
notes: also called ActRIIB(F82I)-Fc
B9: ActRIIB(F82K)-G1Fc (Fc fusion)
chain: GRGEAETRECIYYNANWELERTNQSGLERCEGEQDKRLHCYASWRNSSGTIELVKKGCWLDDKNCYDRQECVATEENPQVYFCCCEGNFCNERFTHLPEAGGPEVTYEPPPTAPTG[human IgG1 Fc and a few adjoining residues not shown]
B10: ActRIIB(K55A)-G1Fc (Fc fusion)
chain: GRGEAETRECIYYNANWELERTNQSGLERCEGEQDARLHCYASWRNSSGTIELVKKGCWLDDFNCYDRQECVATEENPQVYFCCCEGNFCNERFTHLPEAGGPEVTYEPPPTAPTG[human IgG1 Fc and a few adjoining residues not shown]
B11: ActRIIB(K55E)-G1Fc (Fc fusion)
chain: GRGEAETRECIYYNANWELERTNQSGLERCEGEQDERLHCYASWRNSSGTIELVKKGCWLDDFNCYDRQECVATEENPQVYFCCCEGNFCNERFTHLPEAGGPEVTYEPPPTAPTG[human IgG1 Fc and a few adjoining residues not shown]
B12: ActRIIB-Fc variant A24N (Fc fusion)
chain: GRGENETRECIYYNANWELERTNQSGLERCEGEQDKRLHCYASWRNSSGTIELVKKGCWLDDFNCYDRQECVATEENPQVYFCCCEGNFCNERFTHLPEAGGPEVTYEPPPTAPTG[human IgG1 Fc and a few adjoining residues not shown]
B13: ActRIIB-Fc variant E50K (Fc fusion)
chain: GRGEAETRECIYYNANWELERTNQSGLERCKGEQDKRLHCYASWRNSSGTIELVKKGCWLDDFNCYDRQECVATEENPQVYFCCCEGNFCNERFTHLPEAGGPEVTYEPPPTAPTG[human IgG1 Fc and a few adjoining residues not shown]
B14: ActRIIB-Fc variant E50P (Fc fusion)
chain: GRGEAETRECIYYNANWELERTNQSGLERCPGEQDKRLHCYASWRNSSGTIELVKKGCWLDDFNCYDRQECVATEENPQVYFCCCEGNFCNERFTHLPEAGGPEVTYEPPPTAPTG[human IgG1 Fc and a few adjoining residues not shown]
B15: ActRIIB-Fc variant E52A (Fc fusion)
chain: GRGEAETRECIYYNANWELERTNQSGLERCEGAQDKRLHCYASWRNSSGTIELVKKGCWLDDFNCYDRQECVATEENPQVYFCCCEGNFCNERFTHLPEAGGPEVTYEPPPTAPTG[human IgG1 Fc and a few adjoining residues not shown]
B16: ActRIIB-Fc variant E52K (Fc fusion)
chain: GRGEAETRECIYYNANWELERTNQSGLERCEGKQDKRLHCYASWRNSSGTIELVKKGCWLDDFNCYDRQECVATEENPQVYFCCCEGNFCNERFTHLPEAGGPEVTYEPPPTAPTG[human IgG1 Fc and a few adjoining residues not shown]
B17: ActRIIB-Fc variant K55D (Fc fusion)
chain: GRGEAETRECIYYNANWELERTNQSGLERCEGEQDDRLHCYASWRNSSGTIELVKKGCWLDDFNCYDRQECVATEENPQVYFCCCEGNFCNERFTHLPEAGGPEVTYEPPPTAPTG[human IgG1 Fc and a few adjoining residues not shown]
B18: ActRIIB-Fc variant K55R (Fc fusion)
chain: GRGEAETRECIYYNANWELERTNQSGLERCEGEQDRRLHCYASWRNSSGTIELVKKGCWLDDFNCYDRQECVATEENPQVYFCCCEGNFCNERFTHLPEAGGPEVTYEPPPTAPTG[human IgG1 Fc and a few adjoining residues not shown]
B19: ActRIIB-Fc variant F82W/N83A (Fc fusion)
chain: GRGEAETRECIYYNANWELERTNQSGLERCEGEQDKRLHCYASWRNSSGTIELVKKGCWLDDWACYDRQECVATEENPQVYFCCCEGNFCNERFTHLPEAGGPEVTYEPPPTAPTG[human IgG1 Fc and a few adjoining residues not shown]
B20: ActRIIB-Fc variant R40A (Fc fusion)
chain: GRGEAETRECIYYNANWELEATNQSGLERCEGEQDKRLHCYASWRNSSGTIELVKKGCWLDDFNCYDRQECVATEENPQVYFCCCEGNFCNERFTHLPEAGGPEVTYEPPPTAPTG[human IgG1 Fc and a few adjoining residues not shown]
B21: ActRIIB-Fc variant K74R (Fc fusion)
chain: GRGEAETRECIYYNANWELERTNQSGLERCEGEQDKRLHCYASWRNSSGTIELVRKGCWLDDFNCYDRQECVATEENPQVYFCCCEGNFCNERFTHLPEAGGPEVTYEPPPTAPTG[human IgG1 Fc and a few adjoining residues not shown]
B22: ActRIIB-Fc variant L79K (Fc fusion)
chain: GRGEAETRECIYYNANWELERTNQSGLERCEGEQDKRLHCYASWRNSSGTIELVKKGCWKDDFNCYDRQECVATEENPQVYFCCCEGNFCNERFTHLPEAGGPEVTYEPPPTAPTG[human IgG1 Fc and a few adjoining residues not shown]
B23: ActRIIB-Fc variant F82W (Fc fusion)
chain: GRGEAETRECIYYNANWELERTNQSGLERCEGEQDKRLHCYASWRNSSGTIELVKKGCWLDDWNCYDRQECVATEENPQVYFCCCEGNFCNERFTHLPEAGGPEVTYEPPPTAPTG[human IgG1 Fc and a few adjoining residues not shown]
B24: ActRIIB-Fc variant Y60K (Fc fusion)
chain: GRGEAETRECIYYNANWELERTNQSGLERCEGEQDKRLHCKASWRNSSGTIELVKKGCWLDDFNCYDRQECVATEENPQVYFCCCEGNFCNERFTHLPEAGGPEVTYEPPPTAPTG[human IgG1 Fc and a few adjoining residues not shown]
B25: ActRIIB-Fc variant Y60P (Fc fusion)
chain: GRGEAETRECIYYNANWELERTNQSGLERCEGEQDKRLHCPASWRNSSGTIELVKKGCWLDDFNCYDRQECVATEENPQVYFCCCEGNFCNERFTHLPEAGGPEVTYEPPPTAPTG[human IgG1 Fc and a few adjoining residues not shown]
B26: ActRIIB-Fc variant L79R (Fc fusion)
chain: GRGEAETRECIYYNANWELERTNQSGLERCEGEQDKRLHCYASWRNSSGTIELVKKGCWRDDFNCYDRQECVATEENPQVYFCCCEGNFCNERFTHLPEAGGPEVTYEPPPTAPTG[human IgG1 Fc and a few adjoining residues not shown]

What follows are binders tested against T1, activin A (assay: cell-based or functional assay).

Binder	IC50, A204 pGL3(CAGA)12 luciferase reporter [nM]
B1	1.67
B2	1.32
B3	0.1
B4	1.52
B5	> 10
B6	> 100

The binders below were run against T2, BMP10 (assay: cell-based or functional assay).

Binder	IC50, A204 pGL3(CAGA)12 luciferase reporter [nM]
B1	13.2
B2	0.53
B3	0.07
B4	12.6
B5	> 100
B6	> 100
B7	> 100

What follows are binders tested against T3, activin B (assay: cell-based or functional assay).

Binder	IC50, A204 pGL3(CAGA)12 luciferase reporter [nM]
B1	0.08
B2	0.09
B3	0.09
B4	0.11
B5	0.07
B6	0.15
B7	0.1

The binders below were run against T4, GDF11 (assay: cell-based or functional assay).

Binder	IC50, A204 pGL3(CAGA)12 luciferase reporter [nM]
B1	9.95
B3	0.27
B4	17.9
B5	0.24
B6	0.36
B7	> 100

What follows are binders tested against T5, GDF8 (assay: cell-based or functional assay).

Binder	IC50, A204 pGL3(CAGA)12 luciferase reporter [nM]
B3	2.17
B5	5.76

Target: T1, activin A
Assay: cell-based or functional assay
Remark: another data set of the same source

Binder	IC50, A204 pGL3(CAGA)12 luciferase reporter [ng/ml]
B8	11
B9	10
B10	15
B11	19
B12	128
B13	132
B14	756
B15	198
B16	762
B17	396
B18	206

Each binder was assayed against T6, BMP9 (assay: cell-based or functional assay).

Binder	IC50, A204 pGL3(CAGA)12 luciferase reporter [ng/ml]
B8	277
B9	~5000
B10	122
B11	290
B19	~40000
B12	409
B20	1210
B13	721
B14	~3000
B15	359
B16	~10000
B17	5500
B18	777
B21	165

Target: T4, GDF11
Assay: cell-based or functional assay
Remark: another data set of the same source

Binder	IC50, A204 pGL3(CAGA)12 luciferase reporter [ng/ml]
B8	9
B9	15
B10	11
B11	14
B22	477
B23	276
B19	389
B12	99
B20	591
B13	180
B14	638
B15	71
B16	296
B17	365
B18	318
B24	414
B25	544
B21	45
B26	234
